According to PubChem BioAssay AID485344 (National Center for Advancing Translational Sciences (NCATS), 2010):
About 6,900 (2%) of roughly 340,000 compounds were called active. No stated cut-off is given here; in the data, active means inhibition above about 30%; inactive means below that, where a call was filed. Only a part is listed here, and it is no random draw. Entries without a call were filed so in the source.

Target: D(2) dopamine receptor (Homo sapiens) (UniProt P14416)
Test: HTS Assay for Allosteric Antagonists of the Human D2 Dopamine Receptor: Primary Screen for Antagonists; further: 0% is about no effect
Conditions: HEK293 TREx D2 cells, calcium flux, dopamine EC80; at 10 µM; stronger effect = higher value
Outline: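 In this primary screen, negative modulation is detected by tracking calcium flux after an EC80 dopamine challenge in inducible HEK293 T-REx D2 cells preexposed to test compound for 180 s.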

Sequence of UniProt P14416 (P14416 whole entry, looked up): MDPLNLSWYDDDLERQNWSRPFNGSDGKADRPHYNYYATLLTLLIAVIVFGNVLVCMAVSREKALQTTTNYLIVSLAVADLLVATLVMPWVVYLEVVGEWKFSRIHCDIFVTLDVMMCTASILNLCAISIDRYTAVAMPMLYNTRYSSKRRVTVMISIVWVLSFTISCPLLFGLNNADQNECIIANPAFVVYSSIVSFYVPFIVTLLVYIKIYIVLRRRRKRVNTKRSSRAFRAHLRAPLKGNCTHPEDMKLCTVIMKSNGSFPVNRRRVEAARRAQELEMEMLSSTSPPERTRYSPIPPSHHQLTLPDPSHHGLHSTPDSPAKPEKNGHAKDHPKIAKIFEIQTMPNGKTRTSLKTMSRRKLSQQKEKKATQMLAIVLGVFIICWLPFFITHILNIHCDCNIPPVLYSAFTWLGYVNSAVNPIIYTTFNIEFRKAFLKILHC

Row | SMILES | inhibition
1 | COc1cccc(NC(=O)c2oc3ccc(S(=O)(=O)N4CCOCC4)cc3c2C)c1 | -0.213%
2 | CC(C)OCCCNC(=O)CN1C(=O)CSc2ccc(S(=O)(=O)N3CCOCC3)cc21 | 17.1%
3 | O=S(=O)(Nc1ccc(-c2ccc(N3CCCCCC3)nn2)cc1)c1ccc(C(F)(F)F)cc1 | 1.19%
4 | O=C(NCCSc1c(-c2ccc(Cl)cc2)[nH]c2ccccc12)c1ccc(S(=O)(=O)N2CCOCC2)cc1 | 3.07%
5 | COc1ccc(Nc2ncnc3c2cnn3C)c(OC)c1 | 1.41%
6 | Cc1nn(-c2ccccc2)c2c1cc1c(=O)[nH]c(=O)nc-1n2-c1cccc(C(F)(F)F)c1 | 27.2%
7 | Cc1cc(C)c(S(=O)(=O)NCC(c2ccco2)N2CCN(c3ccccc3)CC2)c(C)c1 (centres undefined) | 2.84%
8 | Cc1ccc(-n2nc3c(=O)n(CCCC(=O)NCc4ccc(F)cc4)nc(C)c3c2C)cc1 | 13.9%
9 | Cc1cc(C(F)(F)F)c2c(N)c(C(=O)Nc3c(Cl)cccc3Cl)sc2n1 | 11.9%
10 | Cc1ccc2c(c1)-c1onc(C(=O)N3CCN(c4cccc(C)c4C)CC3)c1CO2 | 1.41%
11 | O=C(CN1CCN(Cc2ccc(F)cc2)C1=O)NCc1ccccc1 | 1.49%
12 | CCCCN(CCCC)C(=O)c1cc2c(=O)n3ccccc3nc2s1 | 11.9%
13 | Cc1ccc(Cl)cc1N1CCN(C(=O)C(C)n2ncn3cccc3c2=O)CC1 (centres undefined) | 8.43%
14 | CCNC(=O)c1c(NC(=O)c2cc(=O)c3ccc(C)c(C)c3o2)sc2c1CCCC2 | 3.83%
15 | Cc1cccc(N2CCN(S(=O)(=O)c3ccc(F)c(C(=O)Nc4cccc(Cl)c4C)c3)CC2C)c1 (centres undefined) | -13.7%
16 | COc1ccccc1NC(=O)Nc1ccc(-n2ccc(C(F)(F)F)n2)cc1 | active: 70.8%
17 | CCN1CCN(C(=O)Cn2ncc3c4ccccc4n(Cc4ccccc4F)c3c2=O)CC1 | -5.52%
18 | O=C(CC(c1cccs1)N1Cc2ccccc2C1=O)Nc1ccccc1 (centres undefined) | 0.464%
19 | O=C(c1cccc2ccccc12)N1CCC(N2CCN(c3ccccc3)CC2)CC1 | active: 74.9%
20 | O=c1cc2nc(-c3ccccc3)nc(SCc3cccc(Br)c3)n2[nH]1 | 8.41%
21 | COc1cccc(N2CCN(C(=O)c3cnc4c(C)cccn4c3=O)CC2)c1 | -11.6%
22 | Cc1cccc(N2CCN(C(c3ccc(F)cc3)c3nnc(-c4ccccc4)o3)CC2)c1C (centres undefined) | 8.03%
23 | COc1ccc(N2CCN(C(CNC(=O)C(=O)NCc3ccc(C)cc3)c3cccnc3)CC2)cc1 (centres undefined) | 4.54%
24 | Cc1ccccc1-c1nc(NC(=O)CSc2ncnc3sc4c(c23)CCCC4)ns1 | 4.44%

Row | SMILES | inhibition
25 | CC(C)Oc1ccc(CNC(=O)C2CCN(C(=O)N3CCOc4ccc(Cl)cc43)CC2)cc1 | -2.04%
26 | Cc1cccc(NC(=O)CSc2nc3ccccc3c3nc(CCn4cncc4C)nn23)c1 | -0.289%
27 | COc1ccccc1NC(=O)c1sc2cccc(Cl)c2c1Cl | -4.43%
28 | CCOc1ccc(CCNC(=O)c2cc3c(=O)n(C)c4ccccc4c3s2)cc1OCC | 7.36%
29 | CCCC12CN3CC(C)(CN(C1)C3c1ccc(CC)cc1)C2=O (centres undefined) | -14.2%
30 | CCOC(=O)c1ccc2ncc(C(=O)OCC)c(NCCc3ccc(OC)c(OC)c3)c2c1 | 12.7%
31 | Cc1cc(C)c(NC(=O)c2ccc(CN3CCc4ccccc4C3)cc2)c(C)c1 | active: 52.4%
32 | COc1ccc(CN2CCN(C(=O)c3ccco3)CC2)cc1 | active: 87.3%
33 | O=C(Cn1c2[n+](c3ccc(C(F)(F)F)cc31)CCCCC2)c1cccc([N+](=O)[O-])c1 | active: 35.3%
34 | CCc1ccc(OCC(=O)NCC(c2ccc(Cl)cc2)N2CCOCC2)cc1 (centres undefined) | 3.05%
35 | Cc1ccc2ncc(C(=O)Nc3cccc(C(F)(F)F)c3)c(=O)n2c1 | 4.46%
36 | COc1ccc(OC)c(NC(=O)Cn2ccn(-c3ccc(F)cc3)c(=O)c2=O)c1 | -1.87%
37 | COc1ccc(-c2nc(SCC(=O)NCC3CCCO3)c(-c3ccc(Cl)cc3)[nH]2)cc1 (centres undefined) | -18.3%
38 | Cc1c(Cl)ccc2sc(NC(=O)c3ccc(S(=O)(=O)N4CCCC4)cc3)nc12 | -6.79%
39 | CCCNC(=O)CCn1nc(-c2ccc(C)cc2)c2ccccc2c1=O | 1.11%
40 | COc1ccc(C)cc1S(=O)(=O)Nc1cccc(-c2ccc(N3CCCC3)nn2)c1 | 21.7%
41 | O=C(NCc1ccc2c(c1)CCN2C(=O)c1ccncc1)c1ccccc1Br | 17.4%
42 | Cc1ccc(S(=O)(=O)c2c(Nc3ccccc3)sc(C(=O)c3ccc4c(c3)OCO4)c2N)cc1 | -0.7%
43 | O=C(COC(=O)/C=C/c1cccc([N+](=O)[O-])c1)Nc1ccc(Cl)cn1 | active: 39.3%
44 | COc1cccc(-n2cc(C(=O)Oc3ccc(F)cc3)c3ccccc3c2=O)c1 | -7.45%
45 | Cc1nn2c(=O)cc(COC(=O)c3ccccc3NC(=O)C(C)C)nc2s1 | 8.6%
46 | COc1ccc(S(=O)(=O)N2CCC(c3nnc(-c4ccccc4C)o3)CC2)c(OC)c1 | -5.16%
47 | Cc1ccc(N2C(=O)c3n[nH]c(C)c3C2c2ccccc2Cl)cc1 (centres undefined) | 20.1%
48 | CC(=O)Nc1c(C)nn(-c2ccccc2)c1N1CCC(C(=O)Nc2cc(F)ccc2F)CC1 | 11.4%

Row | SMILES | inhibition
49 | COc1ccccc1NC(=O)N1CCN(Cc2nc3ccc(C)cc3o2)CC1 | 16.2%
50 | Cn1cc(S(=O)(=O)N2CCCC2)cc1C(=O)N1CCN(c2cccc(Cl)c2)CC1 | -10.8%
51 | Cc1cc(C)c(NC(=O)Cn2c(=O)n(CC3CCCO3)c(=O)c3ccccc32)c(C)c1 (centres undefined) | 14.9%
52 | Cc1cc2c(cc1NS(=O)(=O)c1ccc(NC(=O)CC(C)C)cc1)n(C)c(=O)c(=O)n2C | -1.63%
53 | Cc1ccc(Cn2c(=O)n(CCCCC(=O)NCc3ccc4c(c3)OCO4)c(=O)c3ccccc32)cc1 | 15.3%
54 | COc1cccc(N2CCN(C3=NS(=O)(=O)C(c4ccc(C)cc4)=C3C)CC2)c1 | -5.06%
55 | CCc1ccccc1NC(=O)CSc1ncc2c(n1)-c1cc(Cl)ccc1N(Cc1ccccc1)S2(=O)=O | -2.61%
56 | Cc1cc(C)cc(C(=O)NCCc2csc(-c3ccc(C(F)(F)F)cc3)n2)c1 | -14%
57 | CCc1ccccc1S(=O)(=O)Cc1ccc(C(=O)NCCc2ccc(C)cc2)o1 | 15.2%
58 | CCC(Sc1nnc2c(n1)[nH]c1ccccc12)C(=O)Nc1ccccc1OC (centres undefined) | -4.24%
59 | CCCCn1cc(S(=O)(=O)c2ccc(OC)cc2)c(=O)c2cc(F)c(N3CCOCC3)cc21 | -1.55%
60 | COc1ccc(CCNC(=O)CCc2c(C)nc3c4cccnc4nn3c2C)cc1OC | -16.1%
61 | Cc1c(C(=O)OCC2CCCCC2)[nH]c2c1C(=O)CC(c1ccccc1Cl)C2 (centres undefined) | 3.18%
62 | COc1ccc(NC(=O)c2ncn(-c3ccccc3)n2)cc1Cl | 11.4%
63 | CCc1ccc(-n2nc(C)c3c(C)cc(=O)n(CC(=O)Nc4cc(C)ccc4C)c32)cc1 | 25.7%
64 | Cc1nnsc1C(=O)Oc1ccc(Cl)cc1 | -4.07%
65 | CN1C(=O)Cc2cc(S(=O)(=O)NCc3ccc(Cl)cc3)ccc21 | 19.4%
66 | O=C(NCc1ccccc1)C(=O)NCC(c1cccs1)S(=O)(=O)c1cccs1 (centres undefined) | -4.87%
67 | O=C(CSc1nc2c([nH]c3ccccc32)c(=O)n1-c1cccc(Cl)c1)c1ccccc1 | -19%
68 | COc1ccc(N2CCN(CCCNC(=O)c3cnn(-c4ccc(C)cc4)c3-n3cccc3)CC2)cc1 | -2.75%
69 | CCOc1ccc(NC(=O)N(Cc2cn(CC)c3ccccc23)C2CCCCCC2)cc1 | 12.9%
70 | COc1ccc(CCN(C)C(=O)CCNS(=O)(=O)c2ccccc2C(F)(F)F)cc1OC | active: 34.7%
71 | Cc1cc(C)c(NC(=O)C2CCN(S(=O)(=O)c3c(C)noc3/C=C/c3ccccc3F)CC2)c(C)c1 | -14.6%
72 | COc1ccc(S(=O)(=O)c2c(Nc3ccc(C)cc3C)sc(C(=O)c3ccc(F)cc3)c2N)cc1 | 14.3%

Row | SMILES | inhibition
73 | CN(C)c1ccc(C(CNC(=O)c2ccccc2Cl)N2CCCC2)cc1 (centres undefined) | -1.17%
74 | CSc1ccccc1NC(=O)Nc1ccc(F)c(Cl)c1 | active: 42.8%
75 | CCOCCCNC(=O)c1cn(CC)c2ccc(S(=O)(=O)N3CCOCC3)cc2c1=O | 7.74%
76 | CCOC(=O)c1ccc(N2CCN(c3ccccc3OC)CC2)c(NC(=O)Nc2ccc(CC)cc2)c1 | 0.435%
77 | Cc1cccc2sc(N(Cc3cccnc3)C(=O)CCOc3ccccc3)nc12 | 5.78%
78 | CCOC(=O)CSc1nc2ccc(NC(=O)COc3ccc(F)cc3)cc2s1 | -19.8%
79 | COc1ccc(CNC(=O)C2=CC(c3ccc(OC)c(OC)c3)=NS(=O)(=O)N2C)cc1 | 16%
80 | Cc1ccc(-c2cc(C(=O)O)c3ccccc3n2)s1 | active: 34.2%
81 | CCOc1ccc(C(=O)OCc2cc(=O)n3nc(C4CC4)sc3n2)cc1 | -10.1%
82 | COc1cc(Cl)c(C)cc1NC(=O)c1cc2c(=O)oc3ccccc3c2s1 | -16.5%
83 | CCn1cc(C(=O)N2CCN(c3cc(Cl)ccc3C)CC2)c(=O)c2cc(S(=O)(=O)N3CCCC3)ccc21 | 0.268%
84 | COc1cc2nc(SCC(=O)Nc3ccccc3C)n3nc(CCn4c(C)nc5ccccc54)nc3c2cc1OC | -17.5%
85 | CC(C)(C)C1CCc2c(sc(NC(=O)c3ccco3)c2C(=O)Nc2ccccc2Cl)C1 (centres undefined) | -17%
86 | Cn1ccc2c(OCC(=O)Nc3ccc(OC(F)(F)F)cc3)cccc2c1=O | -2.84%
87 | CC(=O)c1ccc(NS(=O)(=O)c2ccc(Br)s2)cc1 | 2.15%
88 | CCCSc1ncc(Cl)c(C(=O)N(Cc2ccccc2)c2ccc(OC)cc2)n1 | 5.87%
89 | CCc1cnc2c(c1SCC(=O)NCc1ccc(C)cc1)c(=O)n(C)c(=O)n2C | 7.28%
90 | CCOC(=O)c1c(C)oc2nc(C)nc(NCC3CCN(Cc4cc(C)ccc4C)CC3)c12 | -13.3%
91 | Cc1ccc(N2C(=O)C(CC(=O)Nc3cccc(F)c3)N(CCc3ccccc3F)C2=O)cc1 (centres undefined) | -2.03%
92 | CCCN(C(=O)CCc1nc(-c2ccc(C)cc2)no1)c1ccc(OCC)cc1 | -8.42%
93 | COc1cccc(/C=C/c2nc(C#N)c(NC3CCCCC3)o2)c1 | 1.02%
94 | CSc1ccc(CCNC(=O)Cn2c(C)c3cnn(-c4ccccc4)c(=O)c3c2C)cc1 | 0.513%
